Drawing on paper PMC12136788, this text covers binding signal for 14 molecules.

Some of the results follow.

To fix the notation:
T1: UNK ZnF1-3 (human, UniProt Q9C0B0 31-174)
T1 sequence: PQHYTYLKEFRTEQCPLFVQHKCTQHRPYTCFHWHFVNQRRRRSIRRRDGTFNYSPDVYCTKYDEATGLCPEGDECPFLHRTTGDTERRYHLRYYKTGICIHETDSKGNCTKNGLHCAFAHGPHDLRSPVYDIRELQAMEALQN

B1: chr14:59828787:59828788:+_ENSMUSG00000035469_ENSMUST00000043227|mus_hu|FALSE|FALSE (ssRNA)
RNA: GGGAGUUCUACAGUCCGACGAUCGAGUGAAGAUGGGCCACUUUCCGACAUCCACCAUGACUCUGGCUUCAAGCAAUUCCUAUAAAUAAGCCGACAUCUCUGAGUCCAGGAGGUUGAGGCUGCAGUGAGCCGUGUUCACACCACCAACAGAGGAUUGAGCAUCA
B2: chr16:17043922:17043923:+_ENSMUSG00000063358_ENSMUST00000069107|mus_mus|FALSE|FALSE (ssRNA)
RNA: GGGAGUUCUACAGUCCGACGAUCACGGCCUGCUGCCAGAACUCUCUGGACUGAAGGAAUUCCGUGAAAGUAUAAAAGCUGCUACUACCAGAAACUGCCCCUCUGAAAGGCUCAAAGGAGUCAAGAGUGGGUAAGCUGAGACGGCAACAGAGGAUUGAGCAUCA
B3: 10525023_10525143_4246_3pUTR_ENSMUSG00000024743_ENSMUST00000169121|mouse|control|control (ssRNA)
RNA: GGGAGUUCUACAGUCCGACGAUCCACCCCUCCACCCAGGCUGGGUCACUACUAUUCCUAGUAGUCUGAGGGGAGAACAGCUAUGUGGGGGGAUGCUGAGCUGACUGGCUAAGAGGUGCAGGAGCACGCUCUGCAUAAACCCGCCAACAGAGGAUUGAGCAUCA
B4: chr2:172809444:172809445:+_ENSG00000128708_ENST00000264108|hu_mus|FALSE|FALSE (ssRNA)
RNA: GGGAGUUCUACAGUCCGACGAUCCUCAUCAACUUUAGAUGAAUAUUCAACACGGAACAGUGUUGACAGGCUACCAGCAAUAUAGUACAGCAAGAUCUUCAGGCCCUUGUAACCGAAAGCAGUUUCAUCAUCCCCAAAGAGCUGCAACAGAGGAUUGAGCAUCA
B5: chr4:6882955:6882956:+_ENSG00000170871_ENST00000425103|hu_hu|motif|central (ssRNA)
RNA: GGGAGUUCUACAGUCCGACGAUCACCGCAGUCGGAAGGAAAAUUAACUGCAGUUAAGAUGCAAAAAGCAGUGAUACUUCGGAGACAAGCACAUGCACACCCAUUCUUGAUUUGACAACACAAUCUAGUCUAUUUCAAAUAGCCCAACAGAGGAUUGAGCAUCA
B6: chr7:97836282:97836283:+_ENSG00000164715_ENST00000297293|hu_mus|motif|central (ssRNA)
RNA: GGGAGUUCUACAGUCCGACGAUCAAAGCGAGGUCUCCCUCUGUGUUAGGGACAGCAGACUCCUCCGAUGAUGUACUGAAGCGGCGCUGAAGAUGUGAAAUCCCUUUCAGAACAAGAGGAGAGCUGGGUGCUUGGUACAGGAAACAACAGAGGAUUGAGCAUCA
B7: chr6:86333760:86333761:-_ENSG00000135316_ENST00000355238|hu_mus|hu_hu_hu_mus_True|78_98 (ssRNA)
RNA: GGGAGUUCUACAGUCCGACGAUCUUCCUCAAGAAUCUGUUCCUUGGUUUUACUCUUAGGAAUAGAGCCCACAAAAAGCCUAUUGUUGGCAACUGAGAUGCAGACACCAAUGUGCUUCCCGGAACGAAUUUCAUGAUUAUUAUACAACAGAGGAUUGAGCAUCA
B8: chr14:89338683:89338684:+_ENSG00000165533_ENST00000346301|hu_hu|hu_hu_hu_mus_False|48_68 (ssRNA)
RNA: GGGAGUUCUACAGUCCGACGAUCGUGGUUGUUGUGGACCAGGGCCAGCCUGAAGCAUUGGUGGGCCAAAUUUGUAUCUCCGAUUCCCACAGCUACAUGCCCCAGGUUGUACCAGACAUCAGCUGCCUCUUCUUCAUUUUCAGCCAACAGAGGAUUGAGCAUCA
B9: chr2:160855017:160855018:-_ENSMUSG00000057133_ENSMUST00000039782|mus_mus|motif|central (ssRNA)
RNA: GGGAGUUCUACAGUCCGACGAUCAUCCUUUUCCAGUUCUUCCAUUGUGGCCCAUUUACAAUGUAAAUAGGAAAAAUUUCGGUACUUAACGUAGAAAAGCUCUAGGUCGAAUGGAGGUUCUCCUGGGUGAACCUCCUGGACAGUCAACAGAGGAUUGAGCAUCA
B10: chr6:40197388:40197389:+_ENSMUSG00000057716_ENSMUST00000061740|mus_mus|mus_mus_mus_hu_False|58_68 (ssRNA)
RNA: GGGAGUUCUACAGUCCGACGAUCGAGACACUGGGGUGGAUUUAUUCCACCUCUGUUUGGGUGCUAGUAAGAUAGAUAGCUAUUUUGGGAUUCAUGGCCUUGAAUAUCAAGAGGGAAAGGAAGAGGAUGGAAAGAGUCAAGAGUCAACAGAGGAUUGAGCAUCA
B11: chrX:71549400:71549401:+_ENSMUSG00000019087_ENSMUST00000019231|mus_hu|mus_mus_mus_hu_False|38_38 (ssRNA)
RNA: GGGAGUUCUACAGUCCGACGAUCGCAGUAGGAAGAGGGAAGCUCUUCAGUCCAGUGCGCUGCAGGGUGGGAAAGCAACAACACGGACACCGUCCCACCUCAAUUCCCCCCACUGGCACAGGGUCACACAAUCUGGGUCAAAGACAACAGAGGAUUGAGCAUCA
B12: chr21:34924512:34924513:+_ENSG00000159140_ENST00000381679|hu_mus|FALSE|FALSE (ssRNA)
RNA: GGGAGUUCUACAGUCCGACGAUCAGAUGACAUCAUGGAACGUUCUGCAGCAUAGGACAUCAUCAUAGAACGUCUAGAUGCUAACAUCAAGGGUCUAGGUGCUAACCUGUAUGGCCUAGGUGCUAUCCUAUAGGACCUGGGUGCCAACAGAGGAUUGAGCAUCA
B13: chr7:106494041:106494042:-_ENSMUSG00000070436_ENSMUST00000094154|mus_mus|FALSE|FALSE (ssRNA)
RNA: GGGAGUUCUACAGUCCGACGAUCUUCUCGUUUUGAAAGCAACAAAGGCUCAUAUUUCCCUUCCCCCCAUCUUUGAAAAAACUAAAAAAGGGAGAAAAACAAAAGUUCAUGACUGUGAUGCCCAACAUAACAAUUCUAGGGCAGCAACAGAGGAUUGAGCAUCA
B14: chr8:104439394:104439395:+_ENSG00000164934_ENST00000297579|hu_mus|FALSE|FALSE (ssRNA)
RNA: GGGAGUUCUACAGUCCGACGAUCGCUGUCAAAUCCCCAGUUCAUUGAGCACACAGGGCUGGUUCUUUGUUCAUCCCAAAUGUCUACUUGCUGUCCACAAGUGGCAAAGACUGGGUCUUUCCAGUGAUGAUCAAUGCCAGUAUACAACAGAGGAUUGAGCAUCA

The target in this assay is T1, UNK ZnF1-3. Description: nsRBNS (natural sequence RNA bind-n-seq); RBNS binding buffer (assumed for nsRBNS): 25 mM Tris pH 7.5, 150 mM KCl, 3 mM MgCl2, 0.01% Triton X-100, 500 ug/ml BSA, 20 U/ml SUPERase-In, 4 C; UNK is unkempt and MSI1 is Musashi-1; names of the RNAs are library labels; protein concentration not given here; high values mean tight binding.
For B1, the binding signal was 1.12 enrichment R.

Take B2: the binding signal came to 1.04 enrichment R.

Consider B3, for which the binding signal was found to be 1.1 enrichment R.

The molecule B4 returned a binding signal of 1.45 enrichment R.

In turn, B5 came in with a binding signal of 1.65 enrichment R.

Consider B6, for which the binding signal is 1.27 enrichment R.

In turn, B7 had a binding signal of 0.873 enrichment R.

The molecule B8 registered a binding signal of 0.666 enrichment R.

B9 had a binding signal of 0.631 enrichment R.

Turning to B10, the binding signal came to 1.51 enrichment R.

In turn, B11 came in with a binding signal of 1.39 enrichment R.

In the case of B12, the binding signal was 0.427 enrichment R.

For B13, the binding signal is 2.75 enrichment R.

B14: the binding signal was 0.909 enrichment R.
